Test results published in the supplement of paper PMC8047034.
Counter-ions that a name gives are not always drawn. This is one part of the list. Single values are uncertain, as repeats are few or missing.

Each compound was assayed on OVCAR4 (assay: log2 surviving fraction (library drug vs vehicle, or drug + carboplatin vs carboplatin alone; relative to plate median); ovarian cancer lines: OVCAR4 is platinum-sensitive and Ov4Carbo platinum-resistant; higher = more cell survival). Conditions: library drug concentration 10 µM; 7 days; carboplatin co-treatment 0 µM.
Work on `Nc1nc(O)c2ncn(CCC(CO)CO)c2n1` [Penciclovir] yielded a log2 surviving fraction of -0.182.
`CC1=C(/C=C/C(C)=C/C=C/C(C)=C\C(=O)O)C(C)(C)CCC1` [Isotretinoin] showed a log2 surviving fraction of -1.32.
With `NCC[C@H](O)C(=O)N[C@@H]1C[C@H](N)[C@@H](O[C@H]2O[C@H](CN)[C@@H](O)[C@H](O)[C@H]2O)[C@H](O)[C@H]1O[C@H]1O[C@H](CO)[C@@H](O)[C@H](N)[C@H]1O` [Amikacin sulfate] the log2 surviving fraction was 0.771.
In the case of `Cc1cccc(Nc2ccncc2S(=O)(=O)NC(=O)NC(C)C)c1` [Torsemide (Demadex)], the log2 surviving fraction was 0.586.
`O=C1CC[C@@]2(O)[C@H]3Cc4ccc(O)c5c4[C@@]2(CCN3CC2CC2)[C@H]1O5` [Naltrexone HCl] gave a log2 surviving fraction of 0.0958.
`NC(=O)c1cccnc1` [Nicotinamide (Niacinamide)] gave a log2 surviving fraction of 0.305.
In the case of `OC[C@@H](O)[C@@H](O)[C@H](O)[C@@H](O)CO` [Sorbitol (Glucitol)], the log2 surviving fraction was 0.249.
In the case of `C=C1CC[C@H](O)C/C1=C/C=C1\CCC[C@]2(C)[C@@H]([C@H](C)CCCC(C)(C)O)CC[C@@H]12` [Calcifediol], the log2 surviving fraction was -2.62.
`CCCc1nc(C)c2c(=O)nc(-c3cc(S(=O)(=O)N4CCN(CC)CC4)ccc3OCC)[nH]n12` [Vardenafil (Vivanza)] showed a log2 surviving fraction of 0.0563.
`C[C@@](Cc1ccc(O)c(O)c1)(NN)C(=O)O` [Carbidopa] gave a log2 surviving fraction of 0.354.
Compound `N#CC1(c2ccc(NC(=O)c3cccnc3NCc3ccncc3)cc2)CCCC1` [Apatinib (YN968D1)] has a log2 surviving fraction of -2.86.
For `N[C@@H](C(=O)N[C@@H]1C(=O)N2C(C(=O)O)=C(Cl)CS[C@H]12)c1ccccc1` [Cefaclor (Ceclor)], the log2 surviving fraction was -0.696.
`Cc1noc(NS(=O)(=O)c2ccc(N)cc2)c1C` [Sulfisoxazole] was tested, and the log2 surviving fraction was 0.518.
`C=CCN1CC[C@]23c4c5ccc(O)c4O[C@H]2C(=O)CC[C@@]3(O)[C@H]1C5` [Naloxone HCl] showed a log2 surviving fraction of 1.13.
For `C=C1c2c(Cl)ccc(O)c2C(=O)C2=C(O)[C@]3(O)C(=O)C(C(N)=O)=C(O)[C@@H](N(C)C)[C@@H]3[C@@H](O)[C@H]12.O=C(O)c1cc(S(=O)(=O)O)ccc1O` [Meclocycline Sulfosalicylate], the log2 surviving fraction was -0.943.
With `Cc1nc2n(c(=O)c1CCN1CCC(c3noc4cc(F)ccc34)CC1)CCCC2O` (stereo not given) [Paliperidone (Invega)] the log2 surviving fraction was 0.497.
In the case of `Cc1nnc(NS(=O)(=O)c2ccc(N)cc2)s1` [Sulfamethizole (Proklar)], the log2 surviving fraction was -0.00699.
`O=C(CCNNC(=O)c1ccncc1)NCc1ccccc1` [Nialamide] gave a log2 surviving fraction of 0.0158.
Compound `N#CC[C@H](C1CCCC1)n1cc(-c2ncnc3[nH]ccc23)cn1` has a log2 surviving fraction of 0.551.
Work on `O=c1[nH]c2ccccc2n1CCCN1CCC(n2c(=O)[nH]c3cc(Cl)ccc32)CC1` [Domperidone (Motilium)] yielded a log2 surviving fraction of 0.842.
In the case of `Cc1nnc(C(C)C)n1C1C[C@H]2CC[C@@H](C1)N2CC[C@H](NC(=O)C1CCC(F)(F)CC1)c1ccccc1` (stereo in doubt) [Maraviroc], the log2 surviving fraction was 0.377.
`NCC(=O)CCC(=O)O` [5-Aminolevulinic acid hydrochloride] showed a log2 surviving fraction of 1.79.
With `CCN(CC)CC(=O)Nc1c(C)cccc1C` [Lidocaine (Alphacaine)] the log2 surviving fraction was -0.156.
With `CCCN[C@H]1CCc2nc(N)sc2C1` [Pramipexole (Mirapex)] the log2 surviving fraction was 0.487.
With `CC1CC(OC(=O)C(O)c2ccccc2)CC(C)(C)C1` (stereo not given) [Cyclandelate] the log2 surviving fraction was -0.0541.
Work on `CCC(=O)OCC(=O)[C@@]1(OC(=O)CC)[C@@H](C)C[C@H]2[C@@H]3CCC4=CC(=O)C=C[C@]4(C)[C@@]3(F)[C@@H](O)C[C@@]21C` [Betamethasone Dipropionate (Diprolene)] yielded a log2 surviving fraction of -1.05.
Compound `COC(c1ccccc1)(c1ccccc1)[C@H](Oc1nc(C)cc(C)n1)C(=O)O` [Ambrisentan] has a log2 surviving fraction of -0.633.
With `Cc1cnc(C(=O)O)c[n+]1[O-]` [Acipimox] the log2 surviving fraction was 0.548.
In the case of `CCN(CC)C(=O)/C(C#N)=C/c1cc(O)c(O)c([N+](=O)[O-])c1` [Entacapone], the log2 surviving fraction was 0.569.
For `CC[C@H]1OC(=O)[C@H](C)[C@@H](O[C@H]2C[C@@](C)(OC)[C@@H](O)[C@H](C)O2)[C@H](C)[C@@H](O[C@@H]2O[C@H](C)C[C@H](N(C)C)[C@H]2O)[C@](C)(O)C[C@@H](C)/C(=N\OCOCCOC)[C@H](C)[C@@H](O)[C@]1(C)O` [Roxithromycin (Roxl-150)], the log2 surviving fraction was -0.85.
`CN(C)CCCN1c2ccccc2CCc2ccc(Cl)cc21` [Clomipramine hydrochloride (Anafranil)] was tested, and the log2 surviving fraction was -2.07.
`COc1ncnc(NS(=O)(=O)c2ccc(N)cc2)c1OC` [Sulfadoxine (Sulphadoxine)] was tested, and the log2 surviving fraction was 0.000115.
Work on `CC(N)C12CC3CC(CC(C3)C1)C2` (stereo not given) [Rimantadine (Flumadine)] yielded a log2 surviving fraction of 0.028.
`COC(=O)C1=CO[C@@H](O)[C@@H]2C(CO)=CC[C@H]12` [Genipin] gave a log2 surviving fraction of 0.816.
`O=c1ccn([C@@H]2O[C@H](CO)[C@@H](O)[C@H]2O)c(=O)[nH]1` [Uridine] was tested, and the log2 surviving fraction was -0.831.
Work on `CO[C@H]1O[C@@H]2O[C@@]3(C)CC[C@H]4[C@H](C)CC[C@@H]([C@H]1C)[C@@]24OO3` [Artemether (SM-224)] yielded a log2 surviving fraction of -1.17.
Work on `CCOc1nc2cccc(C(=O)O)c2n1Cc1ccc(-c2ccccc2-c2nnn[nH]2)cc1` [Candesartan (Atacand)] yielded a log2 surviving fraction of 0.647.
`CN1C(=O)CCS(=O)(=O)C1c1ccc(Cl)cc1` (stereo not given) [Chlormezanone (Trancopal)] was tested, and the log2 surviving fraction was 0.538.
For `CN1CC2c3ccccc3Oc3ccc(Cl)cc3C2C1` (stereo not given) [Asenapine], the log2 surviving fraction was -0.0943.
`Nc1ccn([C@@H]2O[C@H](CO)[C@@H](O)[C@H]2O)c(=O)n1` [Cytidine] showed a log2 surviving fraction of 0.818.
